Source: PubChem BioAssay AID1508624 (National Center for Advancing Translational Sciences (NCATS), 2021)
Hit rate of the full screen: of about 48,000 compounds, about 120 (0.25%) were called active. About 4% were inconclusive and are not listed. Calls follow the shape of the dose curve; as a rule, active = well fitted activation curve with a large enough effect; inconclusive = small, poorly fitted or top-dose-only effect, or another doubt; inactive = no such curve, though single readings can be large or run the other way. The list shows a part of the results.

experiment: Primary qHTS for Identification of Small Molecule Activators of Huntingtin-Antisense Promoter Activity; conditions: HEK293 HTT-AS promoter firefly luciferase reporter (activity 0% = vehicle and -100% = no light), 24 h; series mostly up to 57.5 µM; activity change, positive = activation: at the top concentration; also: nearly all actives have a fitted effect of over 55% in size
How it was run: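 HEK293 Fluc reporter, 2,500 cells/well, 24 h pre-culture; cpds up to 57.5 uM final, 24 h 37 degrees C; Dual-Glo, 10 min RT; normalized vehicle = 0%, zero RLU = -100%.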
Potency is read from the fitted curve at half-maximal effect.

Activity change, positive = activation, inactive:
Cc1ccc(-c2cc(NC(=O)c3cccc(C)c3)on2)cc1 9.33%
O=S(=O)(NCc1ccc(F)cc1)c1ccc2[nH]c3c(c2c1)CCCC3 -27.7%
Cc1c(Cl)cccc1NC(=O)c1oc2ccc(S(=O)(=O)N3CCC4(CC3)OCCO4)cc2c1C -44%
COc1ccc(NC(=O)C2Cc3ccccc3CN2S(=O)(=O)c2ccccc2)cc1OC (stereo not given) -13.4%
CCc1cccc(-n2c(=O)c3cccnc3n2CC(=O)Nc2ccc(OC)c(Cl)c2)c1 -27.2%
CCc1ccccc1NC(=O)CCCn1c(=O)c2cccn2c2ccccc21 -12.4%
COc1cccc(-n2c(SCC(N)=O)nc3c(oc4ccccc43)c2=O)c1 -21.8%
CCCCSc1nc(-c2cccc(OC)c2)nc2c1Cc1c(CO)cnc(C)c1O2 -1.36%
COc1c2occc2c(OC)c2c(=O)cc(C)oc12 -3.15%
CC1(C)S[C@@H]2[C@H](NC(=O)Cc3ccccc3)C(=O)N2[C@H]1C(=O)O (tested in a mixture with another compound) 1.1%
CCN(CC)c1ccc(NC(=O)CCc2c(C)nc3ncnn3c2C)c(C)c1 -22.3%
COc1cc(C2C(C(=O)Nc3ccccc3C)=C(C)Nc3nc(SCc4cc(C)ccc4C)nn32)ccc1O (stereo not given) -32.4%
Cc1cccn2c(=O)c(C(=O)N3CCN(c4ccc(Cl)cc4)CC3)cnc12 -23.8%
O=S(=O)(NCCc1csc2nc(-c3ccccc3)nn12)c1ccc(Oc2ccccc2)cc1 -54.7%
Cc1ccc(Cl)cc1N1CCN(C(=O)c2noc3c2CCCC3)CC1 -33%
CCOC(=O)c1cc2c(=O)n3ccccc3nc2n(Cc2ccco2)c1=NC(=O)c1cccc(Br)c1 1.41%
Cc1ccc(-n2nnnc2CNC(=O)C2CC(=O)N(c3ccccc3)C2)cc1C (stereo not given) -8.42%
COc1ccc(Cl)cc1NC(=O)Cn1nnc2sc(-c3ccccc3)cc2c1=O -6.97%
NC(=O)NS(=O)(=O)c1ccc(Cl)cc1 2.08%
O=C1CN(C(=O)Cc2ccccc2)C(c2ccc(F)cc2)c2cc(Br)ccc2N1 (stereo not given) -28.5%
Cc1cc(S(=O)(=O)Nc2ccc3oc4c(c3c2)CCCC4)ccc1Cl -26.4%
CCCc1nn2c(=O)cc(COC(=O)c3ccc(NC(=O)COc4ccccc4F)cc3)nc2s1 -3.73%
CCOc1ccc(CCNCc2c(C(=O)O)c(C)n(Cc3ccccc3F)c2C)cc1 -15.6%
Cc1ccc(S(=O)(=O)N2CCc3cc(C(=O)Nc4ccc(Cl)cc4C)ccc32)cc1 12%
CCOc1ccc(NC(=O)[C@@H](c2ccccc2)N2Cc3ccccc3C2=O)cc1 0.903%
CC(C)c1ccc(N2C(=O)N(Cc3cccc([N+](=O)[O-])c3)c3ccccc3S2(=O)=O)cc1 -23.9%
Cc1noc(-c2ccc(-c3noc(-c4ccc([N+](=O)[O-])c(C)c4)n3)cc2)n1 7.99%
COc1ccc(NS(=O)(=O)c2ccc3c(c2)[C@H]2C=CC[C@H]2[C@@H](c2ccc(C(=O)O)cc2)N3)cc1 -3.38%
Cc1ccccc1Cn1c(C)c(CNCCCc2ccccc2)c(C(=O)O)c1C -17%
COc1ccc(C2C=C(c3ccc(Cl)cc3)Nc3nc(NC(=O)CCC(=O)O)nn32)cc1 (stereo not given) -5.15%
O=c1c2sc3ccccc3c2n(Cc2ccc(Cl)cc2)c(=O)n1Cc1ccco1 -12.9%
COc1ccc(-c2csc3nc(-c4ccc(C)cc4)oc(=O)c23)cc1OC 0.831%
Cc1ccc(NC(=O)CCc2nc3cccnc3n2-c2ccccc2)cc1Cl -25%
COc1ccc(CCN(C)CCCC(C#N)(c2cc(OC)c(OC)c(OC)c2)C(C)C)cc1OC (stereo not given) -13.1%
Cc1ccc(N(Cc2cccs2)C(=O)c2ccccc2[N+](=O)[O-])cc1 -39.6%
CCCOc1cccc(C(=O)N2CCCCC2CCN2CCCCC2)c1 (stereo not given) -3.69%
CCC(C)NC(=O)Cn1c(=O)c2cccn2c2ccc(F)cc21 (stereo not given) -4.01%
O=C(Nc1ccc(F)cc1Cl)c1cnc(N2CCOCC2)c2ccccc12 -6.31%
Fc1ccccc1N1CCN(c2ncnc3c2nc2n3CCCC2)CC1 -13.1%
COc1ccc(CCNC(=O)CCCCn2c(=O)c3ccccc3n(Cc3ccccc3)c2=O)cc1OC -28.6%
CN(C)c1ccc(NC(=O)Cn2cc(S(=O)(=O)Cc3ccccc3Cl)c3ccccc32)cc1 -16.5%
CCOC(=O)c1ccc(NC(=O)CSc2ncc(S(=O)(=O)c3ccc(C)c(Cl)c3)c(=O)[nH]2)cc1 -0.36%
CCn1cc2nc(SCC(=O)Nc3ccc(OC)cc3OC)n(Cc3ccc(Cl)cc3)c(=O)c2n1 -27%
Nc1cc(C(Cl)=C(Cl)Cl)c(S(N)(=O)=O)cc1S(N)(=O)=O
CCCCN(C)c1nnc(NC(=O)Nc2ccc(Br)c(C)c2)s1 5.3%
CCc1ccc(CN(Cc2ccco2)C(=O)c2cc(-c3ccc(C)c(F)c3)on2)cc1 -11.8%
CCOc1ccc(NC(=O)Cn2cc(C(=O)c3ccc(C)cc3)c(=O)c3cc4c(cc32)OCO4)cc1 -23.2%
CCn1c2c(c(=O)n3ncc(C(=O)Nc4ccc(Cl)cc4C)c13)CN(Cc1ccc(OC)cc1)CC2 -16.7%
Brc1cccc(-c2nnn3c2nc(N2CCCCC2)c2ccccc23)c1 6.08%
O=C(CNS(=O)(=O)c1cccs1)N1CCN(c2ccccc2F)CC1 21.7%
Cc1ccc(F)cc1S(=O)(=O)N1CCC(c2nc3ccccc3s2)CC1 -5.32%
CCCn1c(=O)c2sccc2n2c(CCCC(=O)NC3CCCCC3)nnc12 4.76%
COCCCNC(=O)c1ccc(-n2c(-c3ccccc3)cc3c2CCCCC3)cc1 19.2%
CCOC(=O)c1cc(OC(=O)c2cc(OC)cc(OC)c2)n(-c2ccccc2)n1 -3.89%
Clc1ccc2nc(-c3cccs3)c(Nc3ccc4c(c3)OCCO4)n2c1 35.2%
CCc1nonc1NC(=O)c1oc2ccc(Cl)cc2c1C 29.5%
CCOC(=O)c1c(NC(=O)CSc2cn(CCNC(=O)c3ccc(OCC)cc3)c3ccccc23)sc2c1CCC2 -36.5%
Cc1ccc(Cl)cc1NC(=O)Cn1c(SCC(=O)NCc2ccccc2)nc2ccccc21 -7.72%
CC1Cc2cc(S(=O)(=O)NCc3ccccc3)ccc2N1C(=O)C1CCC1 (stereo not given) -30.2%
CC1=C(C(=O)OC2CCCCCC2)C(c2ccc(Cl)cc2Cl)CC(=O)N1 (stereo not given) -20%
COc1cccc(CNC(=O)c2cc(=O)[nH]c3ccc(S(=O)(=O)N4CCCC4)cc23)c1 -7.91%
COc1ccc(CNC(=O)CC2Oc3ccc(C)cc3NC2=O)cc1 (stereo not given) 0.196%
Cc1ccc(S(=O)(=O)N2CCc3cc(C(=O)Nc4c(C)cccc4C(C)C)ccc32)cc1 -1.36%
COc1cccc(CC(=O)Nc2ccc3nc(Nc4cccc(C(F)(F)F)c4)cc(C)c3c2)c1 -40%
COC(=O)c1cc2oc3ccccc3c2n1CC(=O)Nc1ccc(F)c(Cl)c1 -12.8%
COc1ccc(CCNc2nc(SCc3cccc(Cl)c3)nc3ccccc23)cc1OC -9.31%
CCOc1ccc(CCNC(=O)c2nn(C)c3c2CSc2ccc(C)cc2-3)cc1OCC -58.1%
Cc1cccc(Cn2c(CN3CCCC(C)C3)nc3c2c(=O)n(C)c(=O)n3C)c1 (stereo not given) 6.05%
Fc1ccc(-c2nnn3c2nc(NCc2ccccc2)c2ccccc23)cc1 -4.01%
CCOc1cc(C(=O)Nc2ccc(-c3nnc4n3CCCCC4)cc2)cc(OCC)c1OCC 0.026%
Cn1c(=O)n(C)c2cc(N3CCOCC3)c(NS(=O)(=O)c3ccc(F)cc3)cc21 -6.47%
O=C1CN(C(=O)c2c(F)cccc2Cl)C(c2ccc(F)cc2)c2cc(Br)ccc2N1 (stereo not given) -20.4%
Cc1ccc2c(c1)c1c(c(=O)n(-c3ccccc3)c(=O)n1CC(=O)c1ccc(Cl)cc1)n2C -18%
CN(C(=O)CSc1nc2ccc(NC(=O)c3cccs3)cc2s1)c1ccccc1 -37.8%
CCOc1ccc(NC(=O)CSc2nccn2C2CCCC2)cc1 5.18%
COC(=O)c1cccc(CN2C(=O)SC(Nc3ccccc3C)C2=O)c1 (stereo not given) -9.68%
CCc1ccc(CNC(=O)C2CCN(C(=O)c3ccc(-n4c(C)cc5ccccc54)s3)CC2)cc1 -80.4%
COc1ccc(-n2c(=O)c3c4c(sc3n(CC(=O)C(C)(C)C)c2=O)CCCC4)c(OC)c1 -14%
CN1CCN(c2c(F)cc3c(=O)c(C(=O)O)cn(CCF)c3c2F)CC1
COc1ccc(Cl)cc1C(=O)NCC(c1ccc(N(C)C)cc1)N1CCCC1 (stereo not given) 1.05%
C[N+](C)(C)CC[N+]1(C)Cc2c(Cl)c(Cl)c(Cl)c(Cl)c2C1 0.491%
Cc1ccc(NC(=O)C2CCCN(S(=O)(=O)c3ccc4c(c3)CCCC(=O)N4)C2)cc1N(C)C (stereo not given) -33%
O=C(Cn1c(-c2cccs2)cc2cc(Cl)ccc21)N1CCCCC1 -19.6%
Cc1ccc(C)c(NC(=O)Cn2c(=O)n(CCCS(=O)(=O)C3CCCCC3)c(=O)c3ccccc32)c1 -21.3%
Cc1ccc(-c2ccc(CCC(=O)O)n2-c2ccc(C)c(Cl)c2)cc1 13.9%
O=C1CCSC2(C(=O)N(Cc3ccccc3)c3ccccc32)N1c1ccccc1 (stereo not given) -43.1%
CCCCOc1ccc(S(=O)(=O)n2nc(C)c(S(=O)(=O)N3CCCCCC3)c2C)cc1 -9.8%
O=C(NCCCN1CCN(c2ccccc2F)CC1)c1sc2ncccc2c1-n1cccc1 -19.2%
CC(=O)N1c2ccc(S(=O)(=O)NCC3CCC(C(=O)Nc4cccc(C)c4)CC3)cc2CC1C (stereo not given) -33.8%
Cc1cc(S(=O)(=O)NCCc2csc(-c3cccc(F)c3)n2)ccc1F -36.8%
CCCC(=O)OC1=C(C(C)=O)N(Cc2ccccc2)S(=O)(=O)c2ccccc21 -23.8%
CCc1ccc2nc(N3CCC(C(=O)NCCC(C)C)CC3)sc2c1 -15.4%
CCCCNC(=O)c1cnc2c(-c3ccc(OCC)c(OCC)c3)c(C)nn2c1-c1ccccc1 -11.8%
CCN(Cc1ccccc1)S(=O)(=O)c1ccc(N2CCCCS2(=O)=O)cc1 -25.1%

Potency, active:
Cc1ccc(NC(=O)c2cnc3cc(C)ccn3c2=O)c(C)c1 3.55 µM
